The results in this text go back to the supplement of paper PMC10681739.

± gives the standard deviation of the averaged measurements. Whole data set: some 4,000 sequences, median “arbitrary fluorescence units” near 830, cut for the highest 2% near 6,500. This part holds few or none of the hits.
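Further: Full-length recombinant human RUNX1 bound to double-stranded DNA microarray spots, detected with an Alexa488-labelled secondary antibody after the anti-RUNX1 primary, read as scanned spot fluorescence.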

The target of the assay is RUNX1 (UniProt Q01196). Briefly: RUNX1 binding intensity (PBM fluorescence), RUNX1 alone (arbitrary fluorescence units); higher = stronger binding. The conditions noted are these: RUNX1 concentration 2 nM; ETS1 concentration 0 nM. As for the experimental part: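 gcPBM on 36-bp genomic-derived probes (partner site mutated) containing one RUNX1 site and no ETS1 site. Recombinant human RUNX1 (2 nM) was incubated alone or with ETS1 (25 nM) and detected by anti-RUNX1 antibody fluorescence. Values are medians over 4 replicate spots (not normalised). The probes sit in constant array flanks that are not printed.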
UniProt Q01196, sequence (Q01196 whole entry): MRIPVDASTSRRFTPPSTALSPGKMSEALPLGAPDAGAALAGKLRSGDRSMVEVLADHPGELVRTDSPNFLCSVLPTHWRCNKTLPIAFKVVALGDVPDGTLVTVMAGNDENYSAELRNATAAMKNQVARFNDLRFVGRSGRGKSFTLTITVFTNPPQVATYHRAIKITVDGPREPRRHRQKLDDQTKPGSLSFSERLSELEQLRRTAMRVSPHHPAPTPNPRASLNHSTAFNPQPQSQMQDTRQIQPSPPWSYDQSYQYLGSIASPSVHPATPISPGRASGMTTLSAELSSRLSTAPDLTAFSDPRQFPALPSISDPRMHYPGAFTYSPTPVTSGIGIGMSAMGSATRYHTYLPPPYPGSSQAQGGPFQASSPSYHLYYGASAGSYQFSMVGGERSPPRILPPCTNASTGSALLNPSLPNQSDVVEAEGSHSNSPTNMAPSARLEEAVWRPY
Take GGAGCGCGCCGGCAACGCGCGGCTGCGGCCCGGGAG: the RUNX1 binding intensity is 664. For GAATGGCGGCTGTGGCTGGGGAGAGAAAGCCGCAGA the value was 880; for CTACGCCACAGAGCGGGGCGGGAGCTGAAGCGACTC, 766; for CCACTTAGTGGTCAGGCCTCTGTCTCTTCGTCCCAT, 1090. The sequence TCCTCTCTCTTGCTCCCTCTGGCCACAAGCTGTGCC displayed an RUNX1 binding intensity of 1520. In the case of GCCGCCTCTTTCTGTGTTGCAAACCACAGGTCCACC it was 1540. In turn, CTAGGCCACCGGGAGTCTCCGCAGTGGTTTTGCAAA displayed an RUNX1 binding intensity of 729. For TCCCAGTTTGTGGGAAGGGTTGAGGGAATTGAGGGG, the RUNX1 binding intensity was 866. For the sequence CGGCCTCAACCACTCAGCGACCTGAAGGGGGAAGAA, the RUNX1 binding intensity turned out to be 1140. In turn, GGGAGTGGGCGGTTTCCCCAGGGACGTTTTATGGTA returned an RUNX1 binding intensity of 800. For CCAACCGCTTCACCACCCCTCAGCGACTGCCGCTTC, the RUNX1 binding intensity is 1130.

Consider ACTGTGCGTTGAGGTCGTCCGCCATCTGCTGCAGCT, for which the RUNX1 binding intensity turned out to be 745. In turn, TCCTGTAGTTGCCGGCTGAAGTGGTAAGGTTTTTGA displayed an RUNX1 binding intensity of 816. In the case of CGGGAATTGTGGTCTCCGCCGTACGCGAGTTGTGAG it was 1030; in that of GTAGGAACCGCGATGTACAGACATGAAACCCAGGTC, 830; in that of CGGCGCTTGCGGGCGGGGCCGACCCCGAAAGTAAGG, 878. GTCGTGGTGGTCGCGAGGGAGCCTGAAAGATGGTGG displayed an RUNX1 binding intensity of 873.

AAAGCATTGCCTGCCTTGACTTAACCACAAGACAGG showed an RUNX1 binding intensity of 1280. In the case of GAATGTCTGTGGTCACATACTCAGCTTCATGTTTAT it was 1540.

On to TTGGTCAGCATGTGGCTGAAGAAGCCACAAGAAAAA, for which the RUNX1 binding intensity stood at 816. The sequence CCGCTGCGGCTGCGCGCTACGTCACTACGTTCGGCG registered an RUNX1 binding intensity of 768. In the case of TAAAGCTGAAGGGGCCGGCTCTGCGGCCTGGCCGCT it was 717; in that of GAGGGGAGGAGGTCTGAGCTTTTAATTGTGGTTTCA, 929; in that of ACGGAGCCGGGGAATCGCGCCGCGGCCCACAACGCC, 727. For CCGGATTGGTCCAGTTCCAGCGCCGCAGCCCGGCGG the value was 885; for GGCGCCACAACAGCACCTTTCTTTGTTTACTGTTCC, 1060; for ACTCCAGGATCGGGCCGCGTTGCCCACACACTTCGC, 818.

Sequence ATTTTAGCATTTTCGTGCTCGGAGACCACATGTTTG yielded an RUNX1 binding intensity of 929. For GGCGTCACATGACCACGAACACTCTTCAGCTACGGC the value was 869; for TGCGACGCGGGTAAGCCGGGCGAAGGCCGTAAGCGG, 699. Regarding GAGCCACCCACACACAGCTCACATGAAGAAGATAAG, the RUNX1 binding intensity amounted to 981. With GCCCACCCAGGGTGTGGTCGGATCCGATGCACCGGG, the RUNX1 binding intensity was determined as 715. GCTCGCGCTTGCTGGGAGCCTTTGATGTGGGTTCTT yielded an RUNX1 binding intensity of 720. In the case of GCCGCGCGGGAGCCTCCGCCCTGTGGTTTTGGAGCC it was 1140; in that of AGGACCGGCTCCGTAACGCGCTGCGGGGAGCGTTGG, 673 ± 1.6. For CTAACCCTGCGTCCTCTTAGTGGTTTCCCCCAACCT the value was 1270; for CCGAATCTGCGGTGGAACCCGTATGTGGCCGAGGCC, 1090. GTTGGCGTAACCGCTAGGTTCTCTGGGAATTGTAGG yielded an RUNX1 binding intensity of 1090. In turn, CAGCATGTGGGTGCACACACCGATTCCTTAGAGGTT came in with an RUNX1 binding intensity of 811. For CTAGGGAGAGGAGGTGAGTTTGTCTGTGGGGGTGGT the value was 771; for TAGGTTTGTGGTAGAAGCTGCAGGCACTTGCTGTCC, 876; for AACGCGTCCATGCTGCGCCTCCCCGCAGGCCTTGCT, 888. With TGCTTAGCAGGCAGTTAGTCTGCCTGTGGTAGCTCC, the RUNX1 binding intensity stood at 664.

The sequence GTAGGGGAGGGACCGCAGGGAGGCGGCAGTCCTTGT registered an RUNX1 binding intensity of 931. In the case of TCAAGTGTTTACCACTGGGTCACCAGGCAGTGGCTT, the RUNX1 binding intensity was 786. As for ACTCCCACCGCAGGCCCCACTACGGACCGGGAGTCA, the RUNX1 binding intensity is 1640.

Consider GACCGTTTCGGGTCCCGCCTGAGCCCGCAGCACAGG, for which the RUNX1 binding intensity amounted to 826. In turn, CAAACCACTTAAGTGTCCTCTGTAACCGTACGGGGG returned an RUNX1 binding intensity of 879. In the case of CTTTGTGGGCGCTCCCTGCGTCGCGGCAGTTGGGAG, the RUNX1 binding intensity amounted to 771. For CCGTGGGCGGTTAAAAGGCCCCGTATGTTCAGGGGG the value was 774; for TGCCCGCGGTTCGCGTCACACCCGTAAGCAGGGGCC, 844. In the case of CTTACCACACGCCGCGAACGCCTTAACTCCCGGTCC it was 1710; in that of TCTTCTTGCTCCCCCACCCCAAAAGCCACAGGTGAC, 1180; in that of TCCCCAGGAATACCACACACCACTTGCCCTACAACA, 1650.

As for GCATGCTCAGTTGCGGGCGGCGTCCGAAGGAGGTGG, the RUNX1 binding intensity stood at 748. On to CTCTTCAGCACGAAATGATGTGGTAAAACAGGGTTA, for which the RUNX1 binding intensity is 862. Sequence GGCACGAAAGAGCTGATGCATTTCAACCGCAGCCTG registered an RUNX1 binding intensity of 1160. In the case of ATGTCTTTAACCACACTGAGCTCCCGGGCCCTGCAC it was 1410. In the case of CAAGAGCCGAAAGTCCCTTGTGCCGCAGTCCTTCCC it was 847; in that of AAACAAGCGGTAACGCGACCACTGCCGCCACAGCCT, 800.

In turn, GGGCTTATCTAGCCACAGCAGAACATGCTGCTCTGG displayed an RUNX1 binding intensity of 756. With TCACAATCGCCCACAAAGACAGCAAGTAACTGTCAG, the RUNX1 binding intensity turned out to be 892.
